Laboratory results published in the supplement of paper PMC10338343.
± gives the standard deviation. Only a part is listed here, and it is no random draw.

tested on: MIWI (PIWIL1) piRISC loaded with piRNA #1 (30 nt); assay: pre-steady-state target cleavage rate (min^-1); MIWI and MILI are mouse PIWI proteins and EfPiwi is from a freshwater sponge; tags in brackets are library labels; higher = faster piRNA-guided slicing of the target; details: guide: piRNA #1 5'p-UGAGGUAGUAGGUUGUAUAGUAUCCAGAGG; auxiliary factor: 500 nM mouse GTSF1
Procedure, shortened: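 The pre-steady-state cleavage rate came from a burst-and-steady-state fit to pooled data from three Cleave-'n-Seq trials, in which uncleaved targets were sequenced and normalised to depth and to weakly complementary targets. Each reaction held 0.1 nM transcribed, DNA-blocked target RNA library and 1 nM active affinity-purified piRISC carrying one synthetic guide, with or without 500 nM GTSF1 partner protein, in HEPES–potassium acetate buffer at 33 °C for 0–8 or 0–960 min. k3 was capped at 0.0001 min^-1.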

Sequence	pre-steady-state target cleavage rate
GGAGACGAUACUAUACAACCUACUCACCUCA	0.652 ± 0.045
GGUCUGGAUACUAUACAACGUACAACCUCA	0.432 ± 0.06
GGAGUCGAUACUAUACAACCUACUACCACA	0.957 ± 0.066
GGAGACCUAUGAUAACAACCUUCUAGCUCA	< 0.0001
GGAGUGGAUACUAUACAACCUACUUCCUCA	0.0134 ± 0.0039
GGAGAGGAUACUAUACAACCUACAUCCUCA	0.108 ± 0.024
GGACUGGAUACUAUACAGACCUACUACCUCA	< 0.0001
GGAGAGGAUAGUAUACAACCUACUACCACA	0.381 ± 0.043
GGAGAGGAUACUAUACAACCAACUACCACA	0.103 ± 0.0098
GCUCAGGAUACAAUACAACCUACUACCUCA	1.9 ± 0.12
GGAGAGGAUACUAAACAACCAACUACCUCA	0.0998 ± 0.0098
GGAGUGGAUAAUAUACAACCUACUACCUCA	1.47 ± 0.077
GGAGACCUUACUUUACAACCUACUACCACA	0.484 ± 0.051
GGACUGGUUUCUAUACAACCUACUACCUCA	1.32 ± 0.15
GGAGACCUAUCUAUGACAACCUACUACCUCA	0.154 ± 0.023
GGAGUGGUUACUAUACAAGCUACUACCUCA	0.764 ± 0.039
